According to the supplement of paper PMC9513381:
Where a chain is given by its changes, count along the chain named. Recombinant human monoclonal antibodies (heavy:light variable regions). ELISA EC50 on the named antigen, from 10 µg/ml down; IC50 / IC90 against spike pseudovirus on 293T-ACE2 cells, 48 h; lower = stronger. Calls: IC50 above 1,000 ng/ml = non-neutralizing; EC50 above 1,000 ng/ml = non-binder. The source prints 1000 for neutralization that was not reached; it is given as >1000 ng/ml. Only binders of the Wuhan-Hu-1 domain have neutralization values.

B1: B1104 (protein)
chain 1: QVQLVQSGAEVKTPGASVKLSCKASGYTFSNYYIHWVRQAPGQGLEWMGIINPSGGGTSYAQKFQGRVAMTRDTSTSTVYMKLSSLTSEDTAVYYCAYTSTTVTTSGFDYWGQGTLVTVSS
chain 2: SYVLTQPPSVSVAPGQTARITCGENDIGSKSVHWYQQRPGQAPVLVVYDDSDRPSGIPERFSGSNSGNPATLTISRVEAGDEADYYCQVWDSSSDHGHVVFGGGTKLTVL
B2: B1105 (protein)
chain 1: QVQLVQSGAEVKKPGSSVKVSCKASGGTFSSYAISWVRQAPGQGLEWMGGIIPISGTAYYAQRFQGRVTITADKSTSTAYMDLSSLRSEDTAIYYCATLQIVVPAAVPPDGGYYFYYYGMDVWGQGTTVTVSS
chain 2: not shown
B3: B2106 (protein)
chain 1: EVQLVESGGALQQPGRSLTLSCAASGFTFEDYAMHWVRQAPGKGLEWVSGITWTGGMIDYADSVKGRFIISRDNAKKSLYLHMRGLRPEDTALYYCARGSRSGSYHLRDHFYGMDVWGQGTTVTVSS
chain 2: DIQMTQSPSTLSASVGDRVTITCRASQNINSWLAWYQQKPGKAPKLVIYDASDLESGVPSRFSGSGSGTEFTLTITSLQPDDFATYYCQQYKAYWSFGQGTKVEIK
B4: B651 (protein)
chain 1: EVQLLESGGDLVRPGGSLRLSCAASGFMFRRYAMNWVRQAPGKGLEWVSGISGSGDKTCYAESVKGRFTISRDNSKNTLYLQMSGLKAEDTAIYYCAKGPRSSFDYFESWGQGTLVTVSS
chain 2: DIQMTQSPSTLSASVGDRVTITCRASQSISNWLAWYQQKPGKAPKLLIYDASSLESGVPSRFSGSGSGTEFTLTISSLQPDDFATYYCQHYNSCPWTFGQGTKVEIK
B5: B652 (protein)
chain 1: EVQLLESGGGLVQPGGSLRLSCAASGFTFTRYAMNWVRQAPGKGLEWVSGIGGYGGSTNYADAVKGRFTISRDDSKNTVYLQMNSLRGEDTAVYHCAKGPRSSFDYFDSWGQGTLVTVSS
chain 2: DIQMTQSPSTLSASVGDRVTITCRASQTISTWLAWYQQKPGRAPKLLIYDASSLESGVPSRFSGSGSGTEFTLTISSLQPDDFATYYCQQYNSYPWTFGQGTKVDI
B6: B653 (protein)
chain 1: QVQLVQSGAEVKKPGASVKVSCTASGYTSIDYFMHWVRQAPGQGLEWMGRINPNSGGTNYAPKFQGRVTMTRDTSINIAYMELSRLRSDDTAVYYCANTGSWRQENWYFELWGRGTLVIVSS
chain 2: DIVMTQTPLSLPVTPGEPASISCRSSQSLLGSDDGNTYLDWYLQRPGQSPQLLIYSLSYRASGVPDRFSGSGSGTDFTLKISRVEAEDVGVYYCMHRIEFPFTFGPGTKVDI
B7: B654 (protein)
chain 1: B6 chain 1 with A24S, M34V, I51V, A79V, F109L, E110Q
chain 2: B6 chain 2 with P12A, G31R, V91I, I98V, T103I
B8: B655 (protein)
chain 1: EVQLVESGGGLIQPGGSLRLSCVASEIIVSSNYMSWVRQAPGKGLEWVSVIYPGGSTFYADSVKGRFTISRDSSKNTLSLQMNSLRDEDTAMYYCAREGLVGGMLAFDIWGQ
chain 2: DIQLTQSPSFLSASVGDRVTITCRASQGISSYLAWYQQKPGKAPKLLIYAASTLQSGVPSRFSGSGSGTEFTLTISSLQPEDFAIYYCQRLNSSPAEITFGQGTRLEIK
B9: B656 (protein)
chain 1: QVQLVQSGAEVKKPGASVKVSCKASGYTFTSYEIIWVRQATGQGLEWMAWMNPNNPNTAYKQKFRGRITLTRDTSRSTAYMELTSLTSEDTAVYFCARVGGLTGASDYWGQGTLVTVSS
chain 2: SYVLTQPPSVSVAPGKTARIPCGGNNLGSKNVHWYQQKPGQAPVLVVYDDSDRPSGIPERFSGSNSGNTATLTISRVEAGDEADYYCQVWDGTTDVFYVFGSGTKVTVL
B10: B657 (protein)
chain 1: QVQLVQSGAEVKKPGASVKVSCKASGYSFTSYLMHWVRQAPGQGLEWMGIINPSGGGRTYAQKFQGRVTMTRDTSTGIVYMELSSLRSEDTALYYCAREHGGNSLFDYWGQGTRVTVSS
chain 2: DIQMTQSPSSLSASVGDRVTITCRASQSISRYLNWYQQKPGKAPNVLIYAASTLQSGVPSRFSGSGSGTDFTLTISGLQPEDFATYYCQQSYNSLGVTFGGGTKVEIK
B11: B658 (protein)
chain 1: QVQLVQSGAEVKKPGASVKVSCEASGYNFMSYGISWVRQAPGQGLEWMGWISVYNDYTHYAQKLQGRVTMTTDTSTSTAYMELRSLRSDDTAVYYCAREGFCSGSNCYRGTYNYYGMDVWGQGTTVTVSS
chain 2: EIVLTQSPATLSLSPGERVTLSCRASQSVSSYLAWYQQKPGQAPRLLIYDASNRATGIPARFSGSGSGTDFTLTISSLEPEDFAVYYCQQRRDAGSFGGGTKVEIQ
B12: B659 (protein)
chain 1: EVQLVESGGGLVQPGRSLRLSCAASGFYFDDYAMHWVRQAPGKGLEWVSGISWNSGTVVYADSVKGRFTISRDNAQKSLYLQVNSLTVEDTALYYCAKDTRSHNDILAGYHGIDYWGQGILVIVSS
chain 2: DIVMTQSPLSLPVTPGEPASISCRSSQSLLHSNGHTYLDWYLQKPGQSPQLLIYMGSNRASGVPDRFSGSGSGTDFTLKISRVEAEDVGVYYCMQALQTPPTFGGGTKVEIK
B13: B660 (protein)
chain 1: EVQLVQSGAEVKKPGESLKISCKTSGYNFNIYWIGWVRQMPGKGLKWMGIIFPGDSDTRYGPSFQGQVTISTDKSISTAYLQWSSLKASDTGMYYCARVASPEGFTTGWNGRGPDEAFDIWGQGTPVTVS
chain 2: QSVLTQPPSASGTPGQRVTISCSGGSSNIGSNYVYWYQHLPGTAPKLLIYRNDQRPSGVPDRFSGSKSGTSASLAISGLRSEDETDYYCATWDDSLSAGVFGGGTKLTVL
B14: B661 (protein)
chain 1: EVQLVESGGGLIQPGGSLRLSCAASGLTVSSNYMNWVRQAPGKGLEWVSIIYSGGTTYYAESVKGRFTISRDNSKNTLYLQMNSLRAEDTAVYYCAREAYGMDVWGQGTTVTVS
chain 2: DIQLTQSPSFLSTSVGDRVTITCRASQGISRSLAWYQQKPGKAPKLLIYETSTLQSGVPSRFSGSGSGTDFTLTISSLQPEDFATYYCEHLNSYPTFGQGTRLEIK

Experiments:
[1] = target: SARS-CoV-2 Wuhan-Hu-1 spike pseudovirus; assay: pseudovirus neutralization IC50; higher = weaker neutralization
Experimental: (§1)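 Single-round luciferase reporter pseudovirus mixed with antibody dilutions and put on 293T-ACE2 cells for 48 h; signal relative to no-antibody wells, four-parameter fit.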

[2] = target: SARS-CoV-2 Wuhan-Hu-1 spike pseudovirus; assay: pseudovirus neutralization IC90; higher = weaker neutralization
Experimental: as §1

[3] = target: SARS-CoV-2 Delta (B.1.617.2) spike RBD; assay: ELISA binding EC50; higher = weaker binding; ELISA of recombinant human antibody on coated antigen, from 10 µg/ml in fourfold dilutions; four-parameter fit.
[4] = target: SARS-CoV-2 Omicron BA.1 spike protein; assay: as above
[5] = target: SARS-CoV-2 Wuhan-Hu-1 spike receptor-binding domain; assay: as above

Binder	pseudovirus neutralization IC50 [1] [ng/mL]	pseudovirus neutralization IC90 [2] [ng/mL]	ELISA binding EC50 [3] [ng/mL]	ELISA binding EC50 [4] [ng/mL]	ELISA binding EC50 [5] [ng/mL]
B1	> 1000	> 1000	90.2	125	2.21
B2	> 1000	> 1000	97.9	17.6	3.53
B3	157	> 1000	> 1000	> 1000	3.25
B4	> 1000	> 1000	7.33	27.8	0.856
B5	> 1000	> 1000	4.42	2.87	0.755
B6	6.76	13.6	3.04	> 1000	1.32
B7	4.24	9.82	1.46	715	0.819
B8	8.59	31.6	3	> 1000	1.12
B9	> 1000	> 1000	6.8	5.86	2.48
B10	9.67	31.9	3.87	> 1000	1.1
B11	13.5	43.2	3.57	30.3	2.48
B12	36.7	237	2.23	6.86	1.49
B13	72.8	> 1000	71.8	> 1000	5.61
B14	8.51	41.8	6.25	> 1000	0.982
